Source: the supplement of paper PMC12217912
Some of the results follow. The full chains were built here from the parent and the listed change. Inactive controls read about 0.05.

B1: TEV protease; numbered along this chain (parent)
chain: MGESLFKGPRDYNPISSSICHLTNESDGHTTSLYGIGFGPFIITNKHLFRRNNGTLVVQSLHGVFKVKDTTTLQQHLVDGRDMIIIRMPKDFPPFPQKLKFREPQREERICLVTTNFQTKSMSSMVSDTSCTFPSGDGIFWKHWIQTKDGQCGSPLVSTRDGFIVGIHSASNFTNTNNYFTSVPKNFMELLTNQEAQQWVSGWRLNADSVLWGGHKVFMVKPEEPFQPVKEATQL

Variants of: B1
Assay: raw area under fraction-flipped curve 0-4 h after induction (AUC4h, not background-subtracted), DNA-recorder readout of cleavage of the substrate (dimensionless); higher = more cleavage of the substrate by the protease variant
Details: temperature: 34 °C; time window: 0-4 h after rhamnose induction
Experimental: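 In vivo DNA recorder in E. coli TOP10(DE3) ΔrhaA at 34 °C. Each TEVp single-site mutant (parent TEVp 0) is paired with a single-site variant of the 7-mer TEVs (canonical ENLYFQ|S). The substrate sits between flexible linkers in a Bxb1-sfGFP-TEVs-SsrA fusion, so cleavage stabilises Bxb1 and speeds flipping of a recombination array, read by NGS. The value is the raw area under the fraction-flipped curve over 0-4 h after rhamnose induction (AUC4h), with ≥20 reads per time point. It is not background-subtracted; inactive controls average about 0.047.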
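Note: Bxb1 expression induced with 0.2% (w/v) L-rhamnose at OD600 near 0.5, cultures sampled hourly, flipped fraction per protease–substrate barcode pair counted by paired-end Illumina sequencing.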

Variant | area with substrate ENLAFQS | area with substrate ENLDFQS | area with substrate ENLEFQS | area with substrate ENLFFQS | area with substrate ENLGFQS | area with substrate ENLHFQS | area with substrate ENLIFQS | area with substrate ENLKFQS | area with substrate ENLLFQS | area with substrate ENLQFQS | area with substrate ENLRFQS | area with substrate ENLSFQS | area with substrate ENLTFQS | area with substrate ENLVFQS | area with substrate ENLWFQS | area with substrate ENLCFQS | area with substrate ENLMFQS | area with substrate ENLNFQS | area with substrate ENLPFQS
MGESLFKGPRDYNPISSSICHLTNESDGHTTSLYGIGFGPFIITNKHLFRRNNGTLVVQSLHGVFKVKDTTTLQQHLVDGRDMIIIRMPKDFPPFPQKLKFREPQREERICLVTTNFQTKSMSSMVSDTSCMFPSGDGIFWKHWIQTKDGQCGSPLVSTRDGFIVGIHSASNFTNTNNYFTSVPKNFMELLTNQEAQQWVSGWRLNADSVLWGGHKVFMVKPEEPFQPVKEATQL [T132M] | 0.0606 | 0.0606 | 0.0467 | 0.0897 | 0.0586 | 0.0618 | 0.076 | 0.0757 | 0.0693 | 0.0734 | 0.0716 | 0.0583 | 0.0714 | 0.087 | 0.0737 | – | – | – | –
MGESLFKGPRDYNPISSSICHLTNESDGHTTSLYGIGFGPFIITNKHLFRRNNGTLVVQSLHGVFKVKDTTTLQQHLVDGRDMIIIRMPKDFPPFPQKLKFREPQREERICLVTTNFQTKSMSSMVSDTSCTFCSGDGIFWKHWIQTKDGQCGSPLVSTRDGFIVGIHSASNFTNTNNYFTSVPKNFMELLTNQEAQQWVSGWRLNADSVLWGGHKVFMVKPEEPFQPVKEATQL [P134C] | 0.0648 | 0.069 | 0.0568 | 0.082 | 0.0584 | 0.071 | – | 0.0682 | 0.0636 | 0.0664 | 0.0766 | 0.0633 | – | – | 0.0531 | 0.0783 | 0.0588 | 0.0667 | 0.0673
MGESLFKGPRDYNPISSSICHLTNESDGHTTSLYGIGFGPFIITNKHLFRRNNGTLVVQSLHGVFKVKDTTTLQQHLVDGRDMIIIRMPKDFPPFPQKLKFREPQREERICLVTTNFQTKSMSSMVSDTSCTFYSGDGIFWKHWIQTKDGQCGSPLVSTRDGFIVGIHSASNFTNTNNYFTSVPKNFMELLTNQEAQQWVSGWRLNADSVLWGGHKVFMVKPEEPFQPVKEATQL [P134Y] | 0.0813 | 0.0547 | 0.0535 | 0.0734 | 0.0589 | 0.065 | 0.071 | – | 0.0577 | 0.0588 | 0.0666 | 0.0621 | 0.0622 | 0.0677 | – | 0.0676 | – | 0.0661 | 0.0607
MGESLFKGPRDYNPISSSICHLTNESDGHTTSLYGIGFGPFIITNKHLFRRNNGTLVVQSLHGVFKVKDTTTLQQHLVDGRDMIIIRMPKDFPPFPQKLKFREPQREERICLVTTNFQTKSMSSMVSDTSCTFPSADGIFWKHWIQTKDGQCGSPLVSTRDGFIVGIHSASNFTNTNNYFTSVPKNFMELLTNQEAQQWVSGWRLNADSVLWGGHKVFMVKPEEPFQPVKEATQL [G136A] | 0.0883 | 0.0651 | 0.0856 | – | – | 0.0684 | – | 0.0731 | – | 0.0567 | – | – | – | 0.0589 | – | – | – | – | –
MGESLFKGPRDYNPISSSICHLTNESDGHTTSLYGIGFGPFIITNKHLFRRNNGTLVVQSLHGVFKVKDTTTLQQHLVDGRDMIIIRMPKDFPPFPQKLKFREPQREERICLVTTNFQTKSMSSMVSDTSCTFPSEDGIFWKHWIQTKDGQCGSPLVSTRDGFIVGIHSASNFTNTNNYFTSVPKNFMELLTNQEAQQWVSGWRLNADSVLWGGHKVFMVKPEEPFQPVKEATQL [G136E] | 0.0665 | 0.063 | 0.0628 | 0.0743 | 0.0767 | 0.0614 | – | 0.075 | 0.0714 | 0.0851 | 0.0728 | 0.059 | – | 0.0972 | – | – | 0.0886 | 0.0666 | 0.05
MGESLFKGPRDYNPISSSICHLTNESDGHTTSLYGIGFGPFIITNKHLFRRNNGTLVVQSLHGVFKVKDTTTLQQHLVDGRDMIIIRMPKDFPPFPQKLKFREPQREERICLVTTNFQTKSMSSMVSDTSCTFPSFDGIFWKHWIQTKDGQCGSPLVSTRDGFIVGIHSASNFTNTNNYFTSVPKNFMELLTNQEAQQWVSGWRLNADSVLWGGHKVFMVKPEEPFQPVKEATQL [G136F] | 0.075 | 0.066 | 0.0628 | 0.0922 | 0.0548 | 0.0673 | 0.0791 | – | 0.0732 | 0.13 | 0.0808 | 0.0687 | 0.073 | – | – | – | 0.0633 | 0.0682 | 0.0535
MGESLFKGPRDYNPISSSICHLTNESDGHTTSLYGIGFGPFIITNKHLFRRNNGTLVVQSLHGVFKVKDTTTLQQHLVDGRDMIIIRMPKDFPPFPQKLKFREPQREERICLVTTNFQTKSMSSMVSDTSCTFPSGDGIFHKHWIQTKDGQCGSPLVSTRDGFIVGIHSASNFTNTNNYFTSVPKNFMELLTNQEAQQWVSGWRLNADSVLWGGHKVFMVKPEEPFQPVKEATQL [W141H] | 0.0539 | 0.059 | 0.0572 | 0.0666 | 0.0568 | 0.0516 | 0.0357 | 0.0695 | – | 0.0846 | 0.0439 | 0.0554 | – | – | – | – | 0.0501 | 0.0756 | 0.0592
MGESLFKGPRDYNPISSSICHLTNESDGHTTSLYGIGFGPFIITNKHLFRRNNGTLVVQSLHGVFKVKDTTTLQQHLVDGRDMIIIRMPKDFPPFPQKLKFREPQREERICLVTTNFQTKSMSSMVSDTSCTFPSGDGIFSKHWIQTKDGQCGSPLVSTRDGFIVGIHSASNFTNTNNYFTSVPKNFMELLTNQEAQQWVSGWRLNADSVLWGGHKVFMVKPEEPFQPVKEATQL [W141S] | 0.041 | 0.0445 | – | 0.0569 | – | 0.069 | 0.0437 | – | 0.0584 | – | 0.0691 | 0.0389 | – | – | 0.0515 | 0.0593 | 0.0447 | 0.056 | 0.0548
MGESLFKGPRDYNPISSSICHLTNESDGHTTSLYGIGFGPFIITNKHLFRRNNGTLVVQSLHGVFKVKDTTTLQQHLVDGRDMIIIRMPKDFPPFPQKLKFREPQREERICLVTTNFQTKSMSSMVSDTSCTFPSGDGIFWKHAIQTKDGQCGSPLVSTRDGFIVGIHSASNFTNTNNYFTSVPKNFMELLTNQEAQQWVSGWRLNADSVLWGGHKVFMVKPEEPFQPVKEATQL [W144A] | 0.0636 | 0.0605 | – | 0.0743 | 0.0952 | 0.0704 | 0.0736 | 0.0746 | – | 0.0791 | 0.0603 | 0.0853 | – | – | – | 0.0828 | – | 0.0799 | –
